In all, about 16,000 sequences were measured (“Z-score”: median about -0.37, highest 2% from about 3.2 on). Some of the results follow.
These sequences were tested on RBM10 RRM1-ZnF (GST-tagged construct) (assay: RNAcompete 7-mer binding Z-score; higher = stronger binding preference).
Procedure, shortened: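 Each heptamer motif was given a one-sided Z-score for enrichment across the probes that contained it. GST-tagged RBM10 constructs (20 pmol) were combined with 1.5 nmol of a designed pool of 241 399 RNAs of up to 41 nt, transcribed from microarray-derived DNA templates. Binding took place in 1 ml Hepes pH 7.8 buffer containing KCl, NaCl, glycerol, DTT, BSA and glutathione Sepharose beads for 30 min at 4°C. After four 2-min washes at 4°C, bound RNA was identified by microarray hybridisation.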

| Sequence | RNAcompete 7-mer binding Z-score |
| --- | --- |
| ACGCCAA | -0.558 |
| AUGGGCA | 2.11 |
| AUACGCG | -0.311 |
| CUACCGA | -0.604 |
| CCGUACC | -0.694 |
| AUAUUUC | -0.691 |
| CAUCCGC | -0.847 |
| ACUAAAA | -0.581 |
| ACCUAAA | -0.798 |
| GGCCUAC | -0.629 |
| CUGUUAG | -0.545 |
| UCCACUU | -0.883 |
| CAUGCGC | -0.772 |
| CGACAAU | -0.425 |
| AUUGGUG | 2.27 |
| GGGGUGU | 4.3 |
| ACUCACC | -0.626 |
| GUUAGUC | -0.132 |
| ACCUUCG | -0.815 |
| AGCGCGU | -0.292 |
| CUAGCGA | -0.347 |
| AUGUGUU | 0.0723 |
| CCAAAUC | -0.785 |

| Sequence | RNAcompete 7-mer binding Z-score |
| --- | --- |
| CUAAUUU | -0.867 |
| AUGCUGU | -0.584 |
| ACUGUCA | -0.584 |
| UUAGAGC | -0.227 |
| CUAAUUC | -0.834 |
| AAUGGGA | 4.35 |
| UCGCGGG | 1.31 |
| GACGCGU | -0.142 |
| UGUAAAA | -0.21 |
| GAAAAGU | 0.504 |
| GUACUGA | 0.0138 |
| ACUCUCG | -0.785 |
| CCUGUCC | -0.763 |
| UGUCAGU | -0.0739 |
| GGCACAC | 0.202 |
| CUCUCUG | -0.769 |
| AUCGCAG | -0.204 |
| CUACUCU | -0.727 |
| AGAGACA | -0.0155 |
| CCUAGCG | -0.496 |
| UUUAAGC | -0.779 |
| AAAGAAC | -0.0674 |
| AGUUUCU | -0.711 |

| Sequence | RNAcompete 7-mer binding Z-score |
| --- | --- |
| CUGCGCA | -0.435 |
| GUCGUGA | 0.215 |
| CAGACUA | -0.503 |
| CACACAG | -0.279 |
| CCCAAUA | -0.711 |
| CCGGCCA | -0.727 |
| UCUGCCC | -0.597 |
| CAGAAUC | -0.461 |
| CAUCUUA | -0.75 |
| CGCGAUA | -0.295 |
| CAUCCCU | -0.737 |
| ACGCCAC | -0.454 |
| GGAUAUA | 1.53 |
| GCCGCAA | -0.464 |
| CAACAUA | -0.461 |
| UGUGUUC | -0.597 |
| UCGGCAU | -0.402 |
| ACCACGA | -0.428 |
| AGGCUUG | 0.00404 |
| AUCCAUG | -0.613 |
| CCAAUUC | -0.798 |
| UAUGACG | 0.0398 |
| UCUUUUG | -0.662 |

| Sequence | RNAcompete 7-mer binding Z-score |
| --- | --- |
| CGUACUC | -0.591 |
| CAAAUCU | -0.824 |
| UCCUUGU | -0.75 |
| GCGGUAU | 0.787 |
| UACUGCU | -0.558 |
| GUGACUU | -0.305 |
| CGAGGCC | -0.184 |
| CUUAAAA | -0.724 |
| UCUUUCC | -0.883 |
| GGCAUUA | 0.0398 |
| GCGAGUA | 0.394 |
| UCGGUAU | -0.256 |
| UGGAAUA | 1.46 |
| CAAGCCU | -0.854 |
| AGGCUUU | -0.535 |
| UUGACGG | 0.42 |
| GAUUAAG | 0.68 |
| UUCGAAA | -0.688 |
| CUAUGCU | -0.711 |
| ACAUUCA | -0.727 |
| ACCGUAC | -0.655 |
| AACUUGA | -0.607 |
| AUUGUAU | -0.483 |

| Sequence | RNAcompete 7-mer binding Z-score |
| --- | --- |
| AGCUCUG | -0.691 |
| AGGUUCU | -0.337 |
| UGAAGGU | 2.57 |
| UCUACUA | -0.737 |
| UGGGCCA | 0.618 |
| ACGGAGA | 1.21 |
| CCGUGCU | -0.678 |
| AUAGGCU | -0.00246 |
| GUGCCAA | -0.197 |
| GGUGUAU | 1.41 |
| AACUCCA | -0.526 |
| CUCUUCA | -0.75 |
| UAAGUGC | -0.23 |
| UAAAUGU | -0.311 |
| CUUUAUG | -0.763 |
| UUGCGAA | -0.272 |
| UAGAAUA | -0.168 |
| GUCCAGU | -0.311 |
| GCACCCU | -0.496 |
| UCUUCUG | -0.805 |
| AACCUUC | -0.993 |
| CUUUCAG | -0.72 |
| ACGAGCC | -0.639 |

| Sequence | RNAcompete 7-mer binding Z-score |
| --- | --- |
| CACCAUG | -0.532 |
| CGGGACG | 1.57 |
| UUUUUCU | -0.591 |
| GGUUAAG | 2.1 |
| GACGGAC | 0.511 |
| CGCGACG | -0.347 |
| CCAAGGA | 0.319 |
| UGACAUU | -0.604 |
| CCCCCGA | -0.116 |
| GCCAGUA | -0.288 |
| CGCCAGA | -0.552 |
| ACCAAGG | 0.352 |
| AAGGCUU | 0.03 |
| CAUUGAC | -0.318 |
| UCGAUAA | -0.633 |
| CAUUCGA | -0.795 |
| UAGCGAU | -0.194 |
| AAAAUGA | -0.0674 |
| GAGGGAA | 3.42 |
| CGCGACC | -0.519 |
| GCGCCUC | -0.457 |
| CUCUCGU | -0.649 |
| CAGUUGG | 0.413 |

| Sequence | RNAcompete 7-mer binding Z-score |
| --- | --- |
| UACCACG | -0.331 |
| UUGGAAG | 1.7 |
| GCCCAAU | -0.604 |
| AUCGAGU | -0.168 |
| GUGCGAG | 1.51 |
| AGGAGAG | 2.07 |
| AGAUGGU | 1.71 |
| CCCAUAU | -0.798 |
| CCUGCCC | -0.305 |
| GACAGAG | 0.816 |
| AACAUAU | -0.516 |
| ACUAUCU | -0.759 |
| UGUAGUU | 0.0365 |
| AUAGCUA | -0.357 |
| AUGACGU | -0.36 |
| ACUAAUA | -0.753 |
| CCAGGAA | 0.28 |
| CGGAGCC | -0.0382 |
| ACUGGUU | 0.251 |
| CCAACGU | -0.415 |
| AAAGCGC | -0.223 |
| CCUAUUA | -0.86 |
| AGUCUAA | -0.431 |

| Sequence | RNAcompete 7-mer binding Z-score |
| --- | --- |
| CGCAUCU | -0.704 |
| GGCUGUG | 0.904 |
| AGCCCUU | -0.805 |
| GUUAGAA | 0.712 |
| UCGUAUG | -0.214 |
| AAUCAAC | -0.633 |
| UAUCUAG | -0.477 |
| CCUUAAG | -0.769 |
| GAAAGUC | -0.119 |
| UGAUAUU | -0.506 |
| GGCGCCU | -0.275 |
| GCGGAAA | 1.34 |
| UAGGCGU | 0.738 |
| GUGUUUC | 0.0105 |
| ACACGAG | -0.00246 |
| CAUGCAG | -0.344 |
| GAUAGUU | -0.129 |
| GCAUAUU | -0.565 |
| UAGUGAU | 0.166 |
| UGUAAUC | -0.529 |
| GUCCUAG | -0.487 |
| AAGCUAG | -0.0739 |
| CAGCGAG | 0.397 |

From the supplement of paper PMC5499739
